In PubChem BioAssay AID1508642 (National Center for Advancing Translational Sciences (NCATS), 2021):
Hit rate of the full screen: of about 43,000 compounds, about 200 (0.47%) were called active. Not shown: some 12% with an inconclusive outcome. Calls come from the whole dose curve; as a rule, active = well fitted cell-killing curve with a large enough effect; inconclusive = small, poorly fitted or top-dose-only effect, or effect the other way; inactive = flat fitted curve, though single readings scatter. This is one part of the list.

experiment: Cell viability qHTS assay in S16 Pmp22-F2sN cells; settings: S16 Pmp22-F2sN Schwann cells (luciferase reporters placed in the Pmp22 gene) viability, CellTiter-Glo, 24 h; series mostly up to 57.5 µM; activity change, negative = cytotoxicity: at the top concentration; note: nearly all actives have a fitted effect of over 65% in size
Procedure, shortened: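 Seed 500-1,000 S16 Pmp22-F2sN cells per well in phenol-red-free DMEM with 10% heat-inactivated FBS; pin-add 23 nL compound; incubate 24 h at 37C; add CellTiter-Glo, wait 15 min protected from light; read luminescence.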
% is set by controls: 0 for no effect and ±100 for the full control effect.

Row | SMILES | activity change, negative = cytotoxicity
1 | CC(=O)NCCNC(=O)CCCc1nnc2n(CC(C)C)c(=O)c3sccc3n12 | inactive: 0.0057%
2 | COc1ccc(-c2cc(-c3nc(-c4cc(OC)c(OC)c(OC)c4)no3)[nH]n2)c(OC)c1 | inactive: -18.1%
3 | COc1cccc(NC(=O)Cn2c(=O)n(Cc3ccc(F)cc3)c(=O)c3sc4ccccc4c32)c1 | inactive: 0.629%
4 | CCOc1ccc(C(=O)Nc2ccc(OCc3cc(=O)n4cccc(C)c4n3)cc2)cc1 | inactive: 4.32%
5 | COc1ccc(CNC(=O)CCc2c(C)nc3cc(-c4ccc(OC)cc4OC)nn3c2C)cc1 | inactive: 6.43%
6 | CCOc1ccc2nc(N3CCCC(C(=O)Nc4ccccc4CC)C3)sc2c1 (configuration not stated) | inactive: -3.96%
7 | CCc1ccc(NC(=O)CSc2nc(-c3ccc(C)cc3)nc3c2Cc2c(CO)cnc(C)c2O3)cc1 | inactive: -0.186%
8 | CCOC(=O)c1cc(-c2ccc(F)cc2)n(CCC(=O)NC2CCC(C)CC2)c1C (configuration not stated) | inactive: -20.9%
9 | Cc1cccc(NC(=O)Cn2c(=O)n(CC3CCC(C(=O)NCCc4ccccc4)CC3)c(=O)c3ccccc32)c1 (configuration not stated) | inactive: 21.1%
10 | Fc1ccc(-c2cc(-c3ccc(F)cc3)c3c(n2)-c2cc(F)ccc2OC3)cc1 | inactive: 11.6%
11 | Fc1ccc(Nc2nc(-c3cccc(Cl)c3)c3c(n2)-c2ccccc2OC3)c(F)c1 | inactive: -2.85%
12 | CC(CC(=O)Nc1ccc(F)cc1)S(=O)(=O)c1cc2c3c(c1)CCN3C(=O)CC2 (configuration not stated) | inactive: 8.47%
13 | COc1ccc(N2CCN(C(=O)C(CC(C)C)NS(=O)(=O)c3ccc4nc(C)sc4c3)CC2)cc1 (configuration not stated) | inactive: 1.27%
14 | CNc1ccc(-c2nc(-c3ccncc3)no2)cc1[N+](=O)[O-] | inactive: 4.4%
15 | O=C(NC1CCCCC1)c1ccc2c(c1)N(Cc1cccc(Cl)c1)C(=O)c1ccccc1S2(=O)=O | inactive: -2.15%
16 | Cc1ccc(CNc2cc(C)nc3nc(-c4ccc(C)cc4)nn23)cc1 | inactive: 18.5%
17 | COC(=O)c1ccccc1NC(=O)CSc1nc2ccccc2nc1Cc1ccc(F)cc1 | inactive: 2.52%
18 | O=C(Nc1cc(-c2cccc(Cl)c2)nn1-c1ccccc1)c1ccccc1F | inactive: 12.8%
19 | CCS(=O)(=O)c1ncc(N(Cc2ccccc2)Cc2ccco2)c(C(=O)Nc2ccccc2C)n1 | inactive: -3.73%
20 | Cc1nnc(NC(=O)CSc2nccn2Cc2ccccc2)s1 | inactive: 3.1%
21 | CSCCC(NS(=O)(=O)c1ccc2c(c1)oc(=O)n2C)C(=O)NCc1ccc(Cl)cc1 (configuration not stated) | inactive: -3.5%
22 | CCC(C)(C)NC(=O)C(NS(=O)(=O)c1cccs1)c1ccccc1 (configuration not stated) | inactive: 1.76%
23 | Cc1cc(F)ccc1Nc1nc2ccc(Cl)cc2n2cnnc12 | inactive: 13.5%
24 | CCOC(=O)c1ccc(-n2c(CCC(=O)O)ccc2-c2ccccc2)cc1O | inactive: -2.4%

Row | SMILES | activity change, negative = cytotoxicity
25 | O=C(Cc1ccc(Cl)cc1)NCCc1csc2nc(-c3ccccc3F)nn12 | inactive: -26.1%
26 | O=C(Nc1ccc(F)cc1F)C1CCN(C(=O)c2cnn(-c3ccccc3)c2-n2cccc2)CC1 | inactive: -11.7%
27 | C=CCC(CC=C)(CNC(=O)C(=O)Nc1ccc(Br)cc1)c1ccc(OC)c(OC)c1 | inactive: 9.34%
28 | CCCc1nnc(SCc2cc(=O)c3c(C)cc(C)cc3[nH]2)n1C | inactive: 13.8%
29 | CCc1nnc(NC(=O)CSc2nccn2Cc2ccc(Cl)cc2)s1 | inactive: 5.45%
30 | CCc1ccc(CNC(=O)Cn2nc(C)c3nn(-c4ccc(Cl)cc4)c(C)c3c2=O)cc1 | inactive: 1.39%
31 | CCOc1ccc(NS(=O)(=O)c2c(C)nc3sc(CC)nn3c2=O)cc1 | inactive: -14.3%
32 | COCCNC(=O)c1ccc2c(c1)ncn2-c1cc(C)ccc1OC | inactive: -2.4%
33 | Cn1cccc1-c1cc2n(n1)CCC(=O)N2CCCC(=O)NCc1cccc(Cl)c1 | inactive: -15.1%
34 | O=C(NCc1cccc(Cl)c1)c1cnc(N2CCOCC2)c2ccccc12 | inactive: 18.5%
35 | Cc1cc(C)cc(NC(=O)CCn2cnc3ccccc3c2=O)c1 | inactive: 1.96%
36 | CCOc1ccccc1NC(=O)Cn1c(=O)n(-c2ccc(C)cc2)c(=O)c2c1cnn2C | inactive: 2%
37 | CSc1ccc(CCNC(=O)c2ccc(-n3c(C)cc4c3CCC(C)C4)cc2)cc1 (configuration not stated) | inactive: -6.71%
38 | COc1ccc2c(c1)c(CC(=O)Nc1c(C)cccc1C)c(C)n2C(=O)c1ccc(Cl)cc1 | inactive: 10.1%
39 | COc1ccc(OCC(=O)NCc2ccc3c(c2)CCN3C(=O)c2cccc(C)c2)cc1 | inactive: -21.6%
40 | Cc1ccc(C)c(N2CCN(C(=O)c3c(C)oc4nc(C)nc(N5CCOCC5)c34)CC2)c1 | inactive: -13.2%
41 | CCCCC(=O)OC1=CN(Cc2ccccc2)S(=O)(=O)c2ccccc21 | inactive: -2.54%
42 | COc1ccc(NC(=O)c2ccc(NC(=O)CCS(=O)(=O)c3cccs3)cc2)cc1Cl | inactive: 14.4%
43 | Cc1ccc(-n2nnnc2SCC(=O)NCCc2ccccc2)cc1C | inactive: 5.56%
44 | CCOc1ccc(N(CC(=O)OC)S(=O)(=O)c2ccc3c(c2)n(C)c(=O)c(=O)n3C)cc1 | inactive: -3.26%
45 | CCC(C)NC(=O)Cn1c(=O)n(-c2ccc(Cl)cc2)c(=O)c2c3c(sc21)CCCC3 (configuration not stated) | inactive: 3.2%
46 | C=CCc1ccccc1OCCSc1nc(-c2ccccc2F)nc2cc(=O)[nH]n12 | inactive: -17.6%
47 | CSc1ncc(C(=O)NCc2cccc(C)c2)c(-c2ccccc2)n1 | inactive: -4.47%
